The name of at least one read-out is uncertain.
System: CyclinD1 (CCND1)
Assay: Cyclin D1 (CCND1) percentage degradation in Calu-1 cells (Table 6)
Format: cell-based
Conditions: 16 hours

## CC(=O)c1c(C)c2cnc(Nc3ccc(N4CCN(C(=O)NCCC5CC(Nc6cc(Cl)ccc6C(=O)Nc6ccc(C)c(C7CC7)n6)C5)CC4)cn3)nc2n(C2CCCC2)c1=O (stereo not drawn) [CPD-256, 4-(6-((6-Acetyl-8-cyclopentyl-5-methyl-7-oxo-7,8-dihydropyrido[2,3-d]pyrimidin-2-yl)amino)pyridin-3-yl)-N-(2-(3-((5-chloro-2-((6-cyclopropyl-5-methylpyridin-2-yl)carbamoyl)phenyl)amino)cyclobutyl)ethyl)piperazine-1-carboxamide]
  CyclinD1 Degradation (40 nM): D (degradation activity <30%)
  CyclinD1 Degradation (200 nM): D (degradation activity <30%)

## CC(=O)c1c(C)c2cnc(Nc3ccc(N4CCN(CC(=O)NCCC5CC(Nc6cc(Cl)ccc6C(=O)Nc6ccc(N(C)C)nn6)C5)CC4)cn3)nc2n(C2CCCC2)c1=O (stereo not drawn) [CPD-257, 2-((3-(2-(2-(4-(6-((6-Acetyl-8-cyclopentyl-5-methyl-7-oxo-7,8-dihydropyrido[2,3-d]pyrimidin-2-yl)amino)pyridin-3-yl)piperazin-1-yl)acetamido)ethyl)cyclobutyl)amino)-4-chloro-N-(6-(dimethylamino)pyridazin-3-yl)benzamide]
  CyclinD1 Degradation (40 nM): B (50%< degradation activity <80%)
  CyclinD1 Degradation (200 nM): A (degradation activity >80%)

## CC(=O)c1c(C)c2cnc(Nc3ccc(N4CCN(CC(=O)NCCC5CC(Nc6cc(F)ccc6C(=O)Nc6ccc(N(C)C)nn6)C5)CC4)cn3)nc2n(C2CCCC2)c1=O (stereo not drawn) [CPD-258, 2-((3-(2-(2-(4-(6-((6-Acetyl-8-cyclopentyl-5-methyl-7-oxo-7,8-dihydropyrido[2,3-d]pyrimidin-2-yl)amino)pyridin-3-yl)piperazin-1-yl)acetamido)ethyl)cyclobutyl)amino)-N-(6-(dimethylamino)pyridazin-3-yl)-4-fluorobenzamide]
  CyclinD1 Degradation (40 nM): B (50%< degradation activity <80%)
  CyclinD1 Degradation (200 nM): A (degradation activity >80%)

## CC(=O)c1c(C)c2cnc(Nc3ccc(N4CCN(CC(=O)NC5CC6(C5)CC(Nc5cc(Cl)ccc5C(=O)Nc5cc(C)on5)C6)CC4)cn3)nc2n(C2CCCC2)c1=O (stereo not drawn) [CPD-259, 2-((6-(2-(4-(6-((6-acetyl-8-cyclopentyl-5-methyl-7-oxo-7,8-dihydropyrido[2,3-d]pyrimidin-2-yl)amino)pyridin-3-yl)piperazin-1-yl)acetamido)spiro[3.3]heptan-2-yl)amino)-4-chloro-N-(5-methylisoxazol-3-yl)benzamide]
  CyclinD1 Degradation (40 nM): D (degradation activity <30%)
  CyclinD1 Degradation (200 nM): C (30%< degradation activity <50%)

## CC(=O)c1c(C)c2cnc(Nc3ccc(N4CCN(CC(=O)NCC5CC(Nc6nc(NC(C)C)ccc6C(=O)Nc6ccc(N(C)C)nn6)C5)CC4)cn3)nc2n(C2CCCC2)c1=O (stereo not drawn) [CPD-316, 2-((3-((2-(4-(6-((6-acetyl-8-cyclopentyl-5-methyl-7-oxo-7,8-dihydropyrido[2,3-d]pyrimidin-2-yl)amino)pyridin-3-yl)piperazin-1-yl)acetamido)methyl)cyclobutyl)amino)-N-(6-(dimethylamino)pyridazin-3-yl)-6-(isopropylamino)nicotinamide]
  CyclinD1 Degradation (40 nM): B (50%< degradation activity <80%)
  CyclinD1 Degradation (200 nM): B (50%< degradation activity <80%)

## CC(=O)c1c(C)c2cnc(Nc3ccc(N4CCN(CC5(C(=O)N6CC7(CC(Nc8nc(NC(C)C)ccc8C(=O)Nc8cn(C)c(C9CC9)n8)C7)C6)CC5)CC4)cn3)nc2n(C2CCCC2)c1=O [CPD-322, 2-((2-(1-((4-(6-((6-acetyl-8-cyclopentyl-5-methyl-7-oxo-7,8-dihydropyrido[2,3-d]pyrimidin-2-yl)amino)pyridin-3-yl)piperazin-1-yl)methyl)cyclopropane-1-carbonyl)-2-azaspiro[3.3]heptan-6-yl)amino)-N-(2-cyclopropyl-1-methyl-1H-imidazol-4-yl)-6-(isopropylamino)nicotinamide]
  CyclinD1 Degradation (40 nM): B (50%< degradation activity <80%)
  CyclinD1 Degradation (200 nM): A (degradation activity >80%)

## CC(=O)c1c(C)c2cnc(Nc3ccc(N4CCN(CCC(=O)N5CC6(CC(Nc7nc(NC(C)C)ccc7C(=O)Nc7cn(C)c(C8CC8)n7)C6)C5)CC4)cn3)nc2n(C2CCCC2)c1=O [CPD-323, 2-((2-(3-(4-(6-((6-acetyl-8-cyclopentyl-5-methyl-7-oxo-7,8-dihydropyrido[2,3-d]pyrimidin-2-yl)amino)pyridin-3-yl)piperazin-1-yl)propanoyl)-2-azaspiro[3.3]heptan-6-yl)amino)-N-(2-cyclopropyl-1-methyl-1H-imidazol-4-yl)-6-(isopropylamino)nicotinamide]
  CyclinD1 Degradation (40 nM): A (degradation activity >80%)
  CyclinD1 Degradation (200 nM): A (degradation activity >80%)

## CNc1ccc(C(=O)Nc2ccc(N(C)C)nn2)c(NC2CC3(C2)CN(C(=O)C2CC24CCN(c2ccc(Nc5ncc6c(C)c(C(C)=O)c(=O)n(C7CCCC7)c6n5)nc2)CC4)C3)n1 (stereo not drawn) [CPD-324, 2-((2-(6-(6-((6-acetyl-8-cyclopentyl-5-methyl-7-oxo-7,8-dihydropyrido[2,3-d]pyrimidin-2-yl)amino)pyridin-3-yl)-6-azaspiro[2.5]octane-1-carbonyl)-2-azaspiro[3.3]heptan-6-yl)amino)-N-(6-(dimethylamino)pyridazin-3-yl)-6-(methylamino)nicotinamide]
  CyclinD1 Degradation (40 nM): B (50%< degradation activity <80%)
  CyclinD1 Degradation (200 nM): A (degradation activity >80%)

## CC(=O)c1c(C)c2cnc(Nc3ccc(N4CCN(C(C)C(=O)NC5CC(Nc6nc(NC(C)C)ccc6C(=O)Nc6ccc(N(C)C)nn6)C5)CC4)cn3)nc2n(C2CCCC2)c1=O (stereo not drawn) [CPD-326, 2-((3-(2-(4-(6-((6-acetyl-8-cyclopentyl-5-methyl-7-oxo-7,8-dihydropyrido[2,3-d]pyrimidin-2-yl)amino)pyridin-3-yl)piperazin-1-yl)propanamido)cyclobutyl)amino)-N-(6-(dimethylamino)pyridazin-3-yl)-6-(isopropylamino)nicotinamide]
  CyclinD1 Degradation (40 nM): B (50%< degradation activity <80%)
  CyclinD1 Degradation (200 nM): B (50%< degradation activity <80%)

## CNc1ccc(C(=O)Nc2ccc(N(C)C)nn2)c(NC2CCN(C(=O)C3CC34CCN(c3ccc(Nc5ncc6c(C)c(C(C)=O)c(=O)n(C7CCCC7)c6n5)nc3)CC4)CC2)n1 (stereo not drawn) [CPD-328, 2-((1-(6-(6-((6-acetyl-8-cyclopentyl-5-methyl-7-oxo-7,8-dihydropyrido[2,3-d]pyrimidin-2-yl)amino)pyridin-3-yl)-6-azaspiro[2.5]octane-1-carbonyl)piperidin-4-yl)amino)-N-(6-(dimethylamino)pyridazin-3-yl)-6-(methylamino)nicotinamide]
  CyclinD1 Degradation (40 nM): B (50%< degradation activity <80%)
  CyclinD1 Degradation (200 nM): B (50%< degradation activity <80%)

## CNc1ccc(C(=O)Nc2ccc(N(C)C)nn2)c(NC2CC(C(=O)N3CCC(N4CCN(c5ccc(Nc6ncc7c(C)c(C(C)=O)c(=O)n(C8CCCC8)c7n6)nc5)CC4)C3)C2)n1 (stereo not drawn) [CPD-333, 2-((3-(3-(4-(6-((6-acetyl-8-cyclopentyl-5-methyl-7-oxo-7,8-dihydropyrido[2,3-d]pyrimidin-2-yl)amino)pyridin-3-yl)piperazin-1-yl)pyrrolidine-1-carbonyl)cyclobutyl)amino)-N-(6-(dimethylamino)pyridazin-3-yl)-6-(methylamino)nicotinamide]
  CyclinD1 Degradation (40 nM): B (50%< degradation activity <80%)
  CyclinD1 Degradation (200 nM): A (degradation activity >80%)

## [2H]C([2H])([2H])Nc1ccc(C(=O)Nc2ccc(N(C)C)nn2)c(NC2CC3(C2)CN(C(=O)CC(C)N2CCN(c4ccc(Nc5ncc6c(C)c(C(C)=O)c(=O)n(C7CCCC7)c6n5)nc4)CC2)C3)n1 (stereo not drawn) [CPD-341, 2-((2-(3-(4-(6-((6-acetyl-8-cyclopentyl-5-methyl-7-oxo-7,8-dihydropyrido[2,3-d]pyrimidin-2-yl)amino)pyridin-3-yl)piperazin-1-yl)butanoyl)-2-azaspiro[3.3]heptan-6-yl)amino)-N-(6-(dimethylamino)pyridazin-3-yl)-6-((methyl-d3)amino)nicotinamide]
  CyclinD1 Degradation (40 nM): B (50%< degradation activity <80%)
  CyclinD1 Degradation (200 nM): A (degradation activity >80%)

## [2H]C([2H])([2H])Nc1ccc(C(=O)Nc2ccc(N(C)C)nn2)c(NC2CC3(C2)CN(C(=O)CC(N2CCN(c4ccc(Nc5ncc6c(C)c(C(C)=O)c(=O)n(C7CCCC7)c6n5)nc4)CC2)C(F)(F)F)C3)n1 (stereo not drawn) [CPD-342, 2-((2-(3-(4-(6-((6-acetyl-8-cyclopentyl-5-methyl-7-oxo-7,8-dihydropyrido[2,3-d]pyrimidin-2-yl)amino)pyridin-3-yl)piperazin-1-yl)-4,4,4-trifluorobutanoyl)-2-azaspiro[3.3]heptan-6-yl)amino)-N-(6-(dimethylamino)pyridazin-3-yl)-6-((methyl-d3)amino)nicotinamide]
  CyclinD1 Degradation (40 nM): B (50%< degradation activity <80%)
  CyclinD1 Degradation (200 nM): B (50%< degradation activity <80%)

## CC(=O)c1c(C)c2cnc(Nc3ccc(N4CCN(C(C)CC(=O)N5CCC(Nc6nc(NC(C)C)ccc6C(=O)Nc6ccc(N(C)C)nn6)CC5)CC4)cn3)nc2n(C2CCCC2)c1=O (stereo not drawn) [CPD-359, 2-((1-(3-(4-(6-((6-acetyl-8-cyclopentyl-5-methyl-7-oxo-7,8-dihydropyrido[2,3-d]pyrimidin-2-yl)amino)pyridin-3-yl)piperazin-1-yl)butanoyl)piperidin-4-yl)amino)-N-(6-(dimethylamino)pyridazin-3-yl)-6-(isopropylamino)nicotinamide]
  CyclinD1 Degradation (40 nM): B (50%< degradation activity <80%)
  CyclinD1 Degradation (200 nM): B (50%< degradation activity <80%)

## CC(=O)c1c(C)c2cnc(Nc3ccc(N4CCC5(CC4)CC5C(=O)N4CC5(CC(Nc6nc(NC(C)C)ccc6C(=O)Nc6ccc(N(C)C)nn6)C5)C4)cn3)nc2n(C2CCCC2)c1=O (stereo not drawn) [CPD-411, 2-((2-(6-(6-((6-acetyl-8-cyclopentyl-5-methyl-7-oxo-7,8-dihydropyrido[2,3-d]pyrimidin-2-yl)amino)pyridin-3-yl)-6-azaspiro[2.5]octane-1-carbonyl)-2-azaspiro[3.3]heptan-6-yl)amino)-N-(6-(dimethylamino)pyridazin-3-yl)-6-(isopropylamino)nicotinamide]
  CyclinD1 Degradation (40 nM): B (50%< degradation activity <80%)
  CyclinD1 Degradation (200 nM): A (degradation activity >80%)

Source: patent US20260297081A1, “COMPOUNDS AND METHODS OF TREATING CANCERS” (Cullgen Inc., priority 2023, published 2026)
